Data on 97 molecules can be found in PubChem BioAssay AID1508642 (National Center for Advancing Translational Sciences (NCATS), 2021).

SMILES strings stand for the structures. In all, about 43,000 compounds went through this assay and about 200 (0.47%) were called active. Inconclusive results (about 12%) are left out. The call rests on the fitted dose curve; in most records, active means well fitted cell-killing curve with a large enough effect; inconclusive means small, poorly fitted or top-dose-only effect, or effect the other way; inactive means flat fitted curve, though single readings scatter. Some of the results follow.
On the % scale 0 is the no-effect control and ±100 the full control effect.

This experiment in a line: Cell viability qHTS assay in S16 Pmp22-F2sN cells. Further: nearly all actives have a fitted effect of over 65% in size. The note with it: S16 Pmp22-F2sN Schwann cells viability, CellTiter-Glo, 24 h; series mostly up to 57.5 µM; activity change, negative = cytotoxicity: at the top concentration. A digest of the protocol: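 Viability was measured by CellTiter-Glo luminescence (15 min, room temperature). This followed 24 h at 37 °C of compound exposure (23 nL pin transfer) in S16 Pmp22-F2sN Schwann cells, 500-1,000 per well.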
With `Cc1c(NC(=O)c2ccccc2F)cccc1-c1nc2cccnc2s1`, the “activity change, negative = cytotoxicity” value is inactive: 21%.
With `O=C(Cn1ncc2c(=O)oc3ccccc3c21)NCc1ccc(Cl)cc1` the figure was inactive: 3.39%.
With `COc1ccc(N(C)C(=O)CCS(=O)(=O)c2cccc3nsnc23)cc1`, the “activity change, negative = cytotoxicity” value is inactive: 2.97%.
The figure for `COc1cccc2sc(N(Cc3cccnc3)C(=O)C3COc4ccccc4O3)nc12` (configuration not stated) is inactive: -4.99%; for `CCOc1ccc(C(=O)Nc2cccc(-c3nc4cccnc4s3)c2C)cc1OCC` it is inactive: 1.13%; for `Cc1ccc2nc3c(cc(C#N)c(=O)n3-c3nnc(SCc4ccccc4Cl)s3)c(=O)n2c1` it is inactive: -29.7%.
With `COc1ccc(/C=C/c2nc(C#N)c(N3CCC(C)CC3)o2)cc1OC` the figure was inactive: -8.44%; with `COc1ccc(Nc2ncc3c(n2)CCN(Cc2ccc(Br)s2)C3)c(OC)c1`, inactive: -2.53%.
The figure for `CCN(c1ccccc1)c1nnc(NC(=O)Nc2ccc(C)cc2)s1` is inactive: 6.82%; for `CSc1ccc(CCNC(=O)c2ccc(-n3c(C)cc4c3CCCC4)cc2)cc1` it is inactive: 23.4%; for `CC(=O)N1N=C(c2ccc(C)cc2)CC1c1cn(-c2ccccc2)nc1-c1cccs1` (configuration not stated) it is inactive: 17.4%.
For `CSc1ccc(CCNC(=O)c2ccc(CS(=O)Cc3ccc(Cl)cc3)o2)cc1` (configuration not stated), the “activity change, negative = cytotoxicity” value is inactive: -1.74%.
Regarding `Cc1ccc2nc(-c3ccc(Cl)c(NC(=O)c4ccc(Br)o4)c3)oc2c1`, the “activity change, negative = cytotoxicity” value was inactive: 12.7%.
In the case of `CSc1nc2c([nH]c3ccccc32)c(=O)n1-c1ccc(C)cc1`, the “activity change, negative = cytotoxicity” value is inactive: 13.7%.
With `Cc1ccc(C)c(N2CCN(S(=O)(=O)c3cc(C(=O)Nc4cc(Cl)cc(Cl)c4)ccc3F)CC2)c1` the figure was inactive: 5.77%.
With `Cc1ccc(Cl)cc1NC(=O)c1cc(S(=O)(=O)N2CCCCCC2)cn1C` the figure was inactive: 2.8%; with `CCc1ccc2c(c1)NC(c1cccnc1)=NC(c1ccc(C(C)(C)C)cc1)=N2`, inactive: -24.2%.
With `COc1cc(C2CC(=O)Nc3c2c(C)nn3-c2nncc(-c3ccccc3)n2)cc(OC)c1OC` (configuration not stated) the figure was inactive: 11.2%; with `CCN(c1ccccc1)S(=O)(=O)c1nnc(NC(=O)c2ccco2)s1`, inactive: 0.743%.
`CCOc1ccc(NS(=O)(=O)c2ccc3nc(-c4ccccc4)[nH]c3c2)cc1`: the “activity change, negative = cytotoxicity” value is inactive: -28.6%.
As for `Cc1ccccc1-c1nnc(SCC(=O)N2CCCCC2)o1`, the “activity change, negative = cytotoxicity” value is inactive: -2.68%.
The figure for `COc1cc(OC)c(Nc2c3c(nc4nc(-c5cccs5)nn24)CCCC3)cc1Cl` is inactive: -16.2%; for `COc1ccc(-c2nc3scc(CCNC(=O)Cc4ccc(F)cc4)n3n2)cc1` it is inactive: 3.88%; for `Cc1ccc(-n2ncc(C(=O)Nc3c(Cl)cccc3Cl)c2C2CCNCC2)cc1` it is inactive: 18.5%.
The figure for `Cc1csc2nc(COc3ccccc3NC(=O)c3ccccc3Cl)cc(=O)n12` is inactive: 22.3%.
As for `COc1cc(CN(C(=O)COc2ccc(Cl)c(C)c2)c2ccccn2)cc(OC)c1OC`, the “activity change, negative = cytotoxicity” value is inactive: -2.68%.
With `Cc1ccc(-c2nc(CS(=O)(=O)CC(=O)Nc3cc(C)ccc3C)c(C)o2)cc1`, the “activity change, negative = cytotoxicity” value was inactive: -15%.
With `Cc1ccn2c(=O)c(C(=O)NCc3ccccc3Cl)c(O)nc2c1`, the “activity change, negative = cytotoxicity” value was inactive: -0.274%.
The figure for `CCc1ccccc1Nc1nn2c(=O)c3ccc(C(=O)NC4CCCCC4)cc3nc2s1` is inactive: 4.17%; for `CC1(C(=O)Nc2ncc(Cc3ccc(Br)cc3)s2)Cc2ccccc2C(=O)O1` (configuration not stated) it is inactive: -1.03%.
With `Cc1ccc(N2CC(NC(=O)C3CCCCC3)CC2=O)cc1C` (configuration not stated), the “activity change, negative = cytotoxicity” value was inactive: 0.449%.
With `COC(=O)C(CCSC)NC(=O)c1cc2c(n(-c3ccc(OC)cc3)c1=O)CC(C)(C)CC2=O` (configuration not stated) the figure was inactive: 6.82%; with `COc1cccc(C(=O)Nc2ccc(NC(=O)c3ccc(C(C)(C)C)cc3)cc2)c1`, inactive: -2.38%; with `CN1CCN(C(=O)Nc2cccc(Cl)c2)c2cccnc21`, inactive: -5.43%.
The figure for `Cc1ccc(CNC(=O)C2CCCN(S(=O)(=O)c3ccc4c(ccn4C)c3)C2)cc1` (configuration not stated) is inactive: 1.79%.
With `CCCCN(CCCC)CCNC(=O)c1cc(=O)[nH]c2ccc(S(=O)(=O)N3CCCCCC3)cc12`, the “activity change, negative = cytotoxicity” value is inactive: 1.24%.
With `CC(C)c1ccc(NC(=O)CSc2nc(=O)n(Cc3cccnc3)c3c2CCC3)cc1` the figure was inactive: 1.27%; with `COc1ccc(CCNC(=O)Cn2cc(S(=O)(=O)Cc3cccc(Cl)c3)c3ccccc32)cc1OC`, inactive: -22.3%; with `CCc1cnc2c(c1SCC(=O)Nc1cc(Cl)ccc1OC)c(=O)n(C)c(=O)n2C`, inactive: -1.13%.
With `Cc1ccc(Cl)cc1NC(=O)CSc1nc(C)c(C)c(C)c1C#N` the figure was inactive: 0.732%.
The figure for `CCOC(=O)c1cnc2c(C(F)(F)F)cccc2c1Nc1cccc(C(=O)OC)c1` is inactive: -9.69%; for `Cc1cc(C)c(NC(=O)CSc2ncc(S(=O)(=O)c3ccc(C(C)(C)C)cc3)c(=O)[nH]2)c(C)c1` it is inactive: 3.39%; for `O=C(NC1CCCC1)c1ccc2c(c1)N(Cc1ccccc1Cl)C(=O)c1ccccc1S2` it is inactive: 2.96%.
As to `CCc1ccc(CNC(=O)C2CCN(C(=O)N3CC(CC)Oc4ccc(C)cc43)CC2)cc1` (configuration not stated), the “activity change, negative = cytotoxicity” value is inactive: -16.3%.
The figure for `COc1ccccc1CNC(=O)CN1C(=O)CCc2cc(S(=O)(=O)N3CCOCC3)ccc21` is inactive: 19.1%.
For `O=C(Nc1ccc2nc(SCC(=O)N3CCCC3)sc2c1)c1ccccc1F`, the “activity change, negative = cytotoxicity” value was inactive: -11.8%.
In the case of `CCc1ccc(NC(=O)CCCc2nc(-c3ccco3)no2)cc1`, the “activity change, negative = cytotoxicity” value is inactive: -3.83%.
With `COc1cc2[nH]c(=O)n(CCCC(=O)NCc3ccccc3)c(=O)c2cc1OC` the figure was inactive: 2.26%.
The figure for `Cc1ccc(OCc2nc(-c3ccc(C(=O)NCCc4ccc(S(N)(=O)=O)cc4)cc3)oc2C)cc1` is inactive: 1.26%; for `COC(=O)c1c(NC(=O)CCCOc2ccccc2C)sc2c1CCC(C)C2` (configuration not stated) it is inactive: 3.38%.
The figure for `CCOc1ccc(NC(=O)CNS(=O)(=O)c2ccc(Br)s2)cc1` is inactive: -7.79%; for `CCOC(=O)c1sc2ccccc2c1S(=O)(=O)N1CCN(c2ccccc2)CC1` it is inactive: 5.97%.
`CC1CN(C(=O)N2CCC(C(=O)NCc3ccco3)CC2)c2cc(Cl)ccc2O1` (configuration not stated): the “activity change, negative = cytotoxicity” value is inactive: -5.45%.
In the case of `Cc1ccc(NC(=O)CN2C(=O)CCc3cc(S(=O)(=O)N4CCCCC4)ccc32)cc1N(C)C`, the “activity change, negative = cytotoxicity” value was inactive: -23.5%.
The figure for `COc1ccc(NC(=O)c2cc(-c3ccccc3O)no2)cc1` is inactive: -3.17%; for `CCCNc1ccc(-c2nc(-c3ccncc3)no2)cc1[N+](=O)[O-]` it is inactive: 1.59%.
Regarding `CCOc1ccc(-c2cc(C(=O)NCc3ccc(C)cc3)c3ccccc3n2)cc1`, the “activity change, negative = cytotoxicity” value was inactive: -0.492%.
As for `CCOc1ccc(Cl)cc1C1CC(=O)Nc2cc(OC)c(OC)c(OC)c21` (configuration not stated), the “activity change, negative = cytotoxicity” value is inactive: 0.793%.
For `CCn1c(SCc2ccccc2F)nc(=O)c2c(C(=O)OC)cc(C3CC3)nc21`, the “activity change, negative = cytotoxicity” value was inactive: -6.84%.
With `Cc1ccc(C)c(N2CCN(C(=O)c3ccc4[nH]c(C)c(C)c4c3)CC2)c1`, the “activity change, negative = cytotoxicity” value was inactive: 0.596%.
As to `CCOC(=O)C1CCCN(C(=O)Cn2ncc3c([nH]c4ccc(C)cc43)c2=O)C1` (configuration not stated), the “activity change, negative = cytotoxicity” value is inactive: 4.65%.
`Cc1ccc(CCNC(=O)c2ccc(CSCc3ccccc3C)o2)cc1`: the “activity change, negative = cytotoxicity” value is inactive: -0.711%.
On to `CCC1CN(C(=O)N2CCC(C(=O)O)CC2)c2cc(C)ccc2O1` (configuration not stated), for which the “activity change, negative = cytotoxicity” value is inactive: -5.84%.
The figure for `Cc1ccc2nc(-c3ccc(NC(=O)COc4ccc(Cl)c(C)c4)cc3)sc2c1` is inactive: 16.2%; for `COc1ccc(Nc2cc(C)c3cc(NC(=O)Cc4c(F)cccc4Cl)ccc3n2)cc1` it is inactive: 2.47%; for `CCN(Cc1ccccc1)C(=O)C1CCN(S(=O)(=O)c2c(C)noc2/C=C/c2ccc(C)cc2)CC1` it is inactive: -18%.
The figure for `CCOC(=O)c1ccc(NC(=O)C2CCN(S(=O)(=O)c3ccc(C)cc3)CC2)cc1` is inactive: 4.29%; for `CC(=O)c1nn(-c2ccc(OC(F)(F)F)cc2)nc1Nc1ccc(C)cc1` it is inactive: 3.87%.
As to `COc1ccccc1CNC(=O)CS(=O)Cc1nc(-c2ccc(OC)c(OC)c2)oc1C` (configuration not stated), the “activity change, negative = cytotoxicity” value is inactive: -29.7%.
Regarding `COc1ccccc1CNC(=O)c1sc2nc3n(c(=O)c2c1C)CCC3`, the “activity change, negative = cytotoxicity” value is inactive: 1.68%.
The figure for `CCOc1ccc(CNS(=O)(=O)c2ccc(-c3cc(C(F)(F)F)on3)s2)cc1` is inactive: 8.37%; for `CCOC(=O)c1c(S(=O)(=O)N2CCCC(C(=O)Nc3ccc(C)cc3C)C2)c(C)n(CC)c1C` (configuration not stated) it is inactive: 8.45%; for `COC(=O)c1ccc(C2c3c(oc4cc(C)c(C)cc4c3=O)C(=O)N2c2ccccn2)cc1` (configuration not stated) it is inactive: -0.0786%.
The figure for `Cc1cc(C)c(NC(=O)CSc2nnc3[nH]c(=O)cc(C)n23)c(C)c1` is inactive: -4.53%; for `O=c1c2ccccc2n2c(-c3ccc(F)c(F)c3)nnc2n1CCc1ccccc1` it is inactive: 3.99%; for `CCOC(=O)c1ccccc1NC1(c2ccc(OC)cc2)C(=O)c2ccccc2C1=O` it is inactive: -13.8%.
As to `CCC(=O)Nc1ccc2nc(SCC(=O)N3CCc4ccccc43)sc2c1`, the “activity change, negative = cytotoxicity” value is inactive: 7.85%.
With `COc1ccc(CCC(=O)NC2CC(=O)N(c3ccc(C)c(C)c3)C2)cc1` (configuration not stated) the figure was inactive: 10.1%.
The figure for `Cc1ccc(NC(=O)c2sc3nc(-c4ccc(F)cc4)cn3c2C)c(C)c1` is inactive: 9.38%; for `O=C(NCc1ccc(Cl)cc1)C(=O)NCC(c1ccco1)S(=O)(=O)c1cccs1` (configuration not stated) it is inactive: -22.7%.
With `CCCCNC(=O)c1ccc2c(=O)n(-c3ccccc3)c(=O)[nH]c2c1` the figure was inactive: 2.17%.
For `CCOc1ccc(S(=O)(=O)Nc2ccc3c(c2)c(C(C)=O)c(C)n3S(=O)(=O)c2ccc(OCC)cc2)cc1`, the “activity change, negative = cytotoxicity” value is inactive: -22.3%.
The figure for `Cc1cc(C)c(NC(=O)Cn2c(=O)n(CCC(=O)NCc3ccc4c(c3)OCO4)c(=O)c3ccccc32)c(C)c1` is inactive: -1.27%; for `CC(=O)Nc1ccc(C(=O)CSc2nnc3cc(C)c4ccccc4n23)cc1` it is inactive: 3.6%.
For `CCc1ccc(NC(=O)C2CCCN(S(=O)(=O)c3c(C)[nH]c(=O)[nH]c3=O)C2)cc1` (configuration not stated), the “activity change, negative = cytotoxicity” value was inactive: 16%.
The figure for `COC(=O)c1ccc(Cn2nc(-c3ccc(C)c(C)c3)ccc2=O)cc1` is inactive: -2.85%.
With `O=C(CCS(=O)(=O)c1cc2c3c(c1)CCN3C(=O)CC2)NCc1ccc(F)cc1` the figure was inactive: 19.9%.
Turning to `COCCc1nn2c(=O)cc(COC(=O)COc3ccccc3C)nc2s1`, the “activity change, negative = cytotoxicity” value is inactive: 9.22%.
As to `COc1ccc(Cl)cc1Nc1ncnc2c1nc1n2CCCC1`, the “activity change, negative = cytotoxicity” value was inactive: 6.23%.
The figure for `O=C(Nc1noc2ccccc12)c1cccc(F)c1` is inactive: 19.7%.
Regarding `CC(C)c1ccc(NC(=O)C2CCCN(S(=O)(=O)c3cccc4nonc34)C2)cc1` (configuration not stated), the “activity change, negative = cytotoxicity” value is inactive: 6.04%.
The figure for `O=C1C(c2ccc(F)cc2)N(CCc2ccccc2)C(=O)CN1C1CCCCC1` (configuration not stated) is inactive: -8.59%; for `COc1ccc(CN(C(=O)Nc2ccc(C)c(F)c2)C2CCN(C(C)=O)CC2)cc1` it is inactive: 8.07%; for `CC(C)c1ccc(C(=O)Nc2cccc3cccnc23)cc1` it is inactive: 16.8%.
The figure for `CCc1ccc(NC(=O)Cn2nnc(C(=O)NCc3ccco3)c2N)cc1` is inactive: -0.237%; for `Cc1ccccc1C(=O)Nc1nnc(SCc2cc(=O)c3c(C)ccc(C)c3[nH]2)s1` it is inactive: -20.1%.
As for `COc1cccc(COC(=O)c2ccc(-c3nnn(Cc4ccccc4)n3)cc2)c1`, the “activity change, negative = cytotoxicity” value is inactive: -1.29%.
